The values that follow come from PubChem BioAssay (NCI).

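Compound exposure: 48 hours, 5 concentrations, 96-well plates. GI50: concentration for 50% inhibition of growth. TGI is the concentration that stops growth completely.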

The subject of this assay is NCI-H322M lung. Description: NCI tumour cell line growth inhibition, 48 h.
For `N/C(=N\c1nc2ccccc2s1)NC(=O)Nc1ccc(Cl)cc1Cl`, the GI50 was 1.24 µM and the TGI is 4.23 µM.

Turning to `COc1ccc(NC(=O)Cn2c(/C=C/c3cccc(OC)c3)nc3ccccc3c2=O)cc1`, the GI50 is 5.82 µM and the TGI is greater than 100 µM.

Take `O=C(N/C(=C1/OCCN1Cc1ccccc1)[P+](c1ccccc1)(c1ccccc1)c1ccccc1)c1ccccc1`: the GI50 is 8.82 µM and the TGI was determined as 21.8 µM.

Turning to `COc1cc(C2CC(c3ccc(C(F)(F)F)cc3)=Nc3c(N)nc(N)nc3N2)ccc1Oc1nc(Nc2ccc(F)cc2)nc(N(C)C)n1` (stereo not drawn), the GI50 was greater than 100 µM and the TGI is greater than 100 µM.
